{"source": "paper PMC12136788", "binders": {"B1": {"name": "chr12:97337435:97337436:+_ENSG00000139350_ENST00000266742|hu_hu|FALSE|FALSE (ssRNA)", "RNA": "GGGAGUUCUACAGUCCGACGAUCAGACUCAGCUGUUAGAUCACGGUUUUCAUUUUCCUCUUUCCCUGGAGAUCCCAUAAAAACAUUAAGAGGACUAGAAUGCAAUACUGAAGUACUUGAAGUUACUGGAUUUUUUCUUGGAGGCAACAGAGGAUUGAGCAUCA"}, "B2": {"name": "chr10:89103549:89103550:-_ENSMUSG00000069539_ENSMUST00000105294|mus_mus|motif|central (ssRNA)", "RNA": "GGGAGUUCUACAGUCCGACGAUCUAUCGGUUGGUCUCUGUUGAGGCUGCUUCACGCUAGCAGGAGGAAUAGUCAAAGGGCGGAAGUUUGACAUAGUGGGAGGUGCUCCCAGACUCAUGGUGGUCACGCCAGCUGUGCCCGUCCCAACAGAGGAUUGAGCAUCA"}, "B3": {"name": "55182840_55182960_308_CDS_ENSG00000121057_ENST00000337714|human|control|control (ssRNA)", "RNA": "GGGAGUUCUACAGUCCGACGAUCAGCACCAGCCUCCACCUGCUGCUCAUCAUGGCUGCUGACAUGGCCUUUUUUACGAGAGAAAAACCACCACCAGCCGAGGAGCGCCAGCAUCCCAGGCAAUGCCAAGGGGAAGAGCGAACGCAACAGAGGAUUGAGCAUCA"}, "B4": {"name": "chr3:52726942:52726943:+_ENSG00000163938_ENST00000418458|hu_mus|FALSE|FALSE (ssRNA)", "RNA": "GGGAGUUCUACAGUCCGACGAUCCCGAAGGGCAAGUGCAGUGGGGGAGUUACAAGGUGAGAUAAUUAGGCAUGGACUGUCUAUGAUUGUGAUCUGCUUGUCUAAAGGGACAAUCUGCAUGCUCCUUGUAAGUCCCAUGGAAAUCAACAGAGGAUUGAGCAUCA"}, "B5": {"name": "chrX:117107323:117107324:-_ENSG00000003096_ENST00000371878|hu_hu|FALSE|FALSE (ssRNA)", "RNA": "GGGAGUUCUACAGUCCGACGAUCUUUGAGCUGCAACAAUACAAAUGGGAUAUAAACCUCAGCAUAGCCUUAGGCUACCGCUAAUAGAGAUCAGUGACUAAAUUCAGCAGCCUGCUUUCCUCCUGUGCAAGCUCUGGCCACACACAACAGAGGAUUGAGCAUCA"}, "B6": {"name": "chr5:118832277:118832278:+_ENSG00000133835_ENST00000256216|hu_mus|FALSE|FALSE (ssRNA)", "RNA": "GGGAGUUCUACAGUCCGACGAUCUGACGUGGCUGCAGGUGCCGCGUGACUGGUACGGUUUGGUGAGAUUCCUUCUGAAUCUACCUUAUGUAAAACUUCGACUAUACCACCUGUUGAUUCUUGAAUGGUCUGCGGCUUGCUGGCCAACAGAGGAUUGAGCAUCA"}, "B7": {"name": "chr10:22824096:22824097:-_ENSG00000150867_ENST00000376573|hu_hu|FALSE|FALSE (ssRNA)", "RNA": "GGGAGUUCUACAGUCCGACGAUCGAAAUAAAUGACAGACUGUUUGUUAUAGACAAAAAUAAAAGCAUUCUGUAAACUUCUAAAAGCAUACACAGAUUGGCCCCCAAGGAAACAGUUACUCAAAUAAUGUAUGUGUACCUUAUCCAACAGAGGAUUGAGCAUCA"}, "B8": {"name": "chr12:69233606:69233607:+_ENSG00000135679_ENST00000462284|hu_hu|motif|central (ssRNA)", "RNA": "GGGAGUUCUACAGUCCGACGAUCUCUAAAUUCCUAGGGUUAUAUAGUUAGAAAUAUAUAAUUCUCUUAUAGACAGGUCAACGGGGGGAAAUAAGUUAGCACAAUCAUUUGAAUUGGUUGUCUACAUACUGGGCAGGGCUUAUUCAACAGAGGAUUGAGCAUCA"}, "B9": {"name": "chr3:64004597:64004598:-_ENSG00000163636_ENST00000295901|hu_hu|FALSE|FALSE (ssRNA)", "RNA": "GGGAGUUCUACAGUCCGACGAUCAGUAUAAGUCACAAAUGUUUUAUAAUCCAUGAGUUCAUAGGAUGUAAAUGUUGAAACAGUGUCAAGGAAGAGUUCAGCUGCCUGUUUGAAAUCACGAAUAGCCACACAAUAAAGACCCUGCAACAGAGGAUUGAGCAUCA"}, "B10": {"name": "chr3:16083472:16083473:+_ENSMUSG00000047213_ENSMUST00000108345|mus_hu|motif|central (ssRNA)", "RNA": "GGGAGUUCUACAGUCCGACGAUCCGAACCGUUUUGUACUGAAACUUUAUUUCCUUGCCCUUUAGGUCUCUGAUCCACGCGGGUGGCUGACAUUCUUCACCGCAACCCGAGAGCCGCCGCCGCCGCCGCUGCCUGGGCCUCUCCCAACAGAGGAUUGAGCAUCA"}, "B11": {"name": "chr4:137866854:137866855:+_ENSMUSG00000028757_ENSMUST00000030538|mus_hu|motif|central (ssRNA)", "RNA": "GGGAGUUCUACAGUCCGACGAUCGUCAUCGCCAUCAAAGGGGACCCAUUUGCCAUUUGAGAGCUGCUGGAUCACGAUGCGGUACUCCACUAGGUCAGUGACAGUGUAGGCAUUGGGUGGGGCUGUCUCGCCCACCCGAUGAUGCAACAGAGGAUUGAGCAUCA"}, "B12": {"name": "chr17:65740002:65740003:+_ENSG00000130935_ENST00000581375|hu_hu|hu_hu_hu_mus_False|68_88 (ssRNA)", "RNA": "GGGAGUUCUACAGUCCGACGAUCAACAAAUCUUUCUUCCCUGGACGCAAGAGUUCAUUCAUAUUAACUUUAUAAAAUAUCCAUCAAGUUAGGUGUGGUGGCCACACCUUUACUCCCAGCACUUUGGGAGGUGGAUCUCUGAGUCAACAGAGGAUUGAGCAUCA"}, "B13": {"name": "chr1:36068893:36068894:-_ENSG00000126067_ENST00000373237|hu_hu|FALSE|FALSE (ssRNA)", "RNA": "GGGAGUUCUACAGUCCGACGAUCUCCCUGGCAAGUGGGAGGGAGGACAUGAUGUUAGGAGCCCUGUUUGGGGAAGGAAAUGUUAUCCAGGUCAUGGAUGCCAUUUUUGUCAAUGAUUCGAACACUGAAGGUUGGCAGAUUCAGCAACAGAGGAUUGAGCAUCA"}, "B14": {"name": "chr8:127197416:127197417:-_ENSMUSG00000037300_ENSMUST00000118134|mus_hu|FALSE|FALSE (ssRNA)", "RNA": "GGGAGUUCUACAGUCCGACGAUCUUUGGCGACUUUGCUAAAGGCCUCUGAACCAGGGGCUGUCAUAGCUUCAAAGUCGACUAACUUCCCUUUGGGAAUUUUUCCUGCUACUUCUUUUCCACUUGCCAUCAGUGCUCCCACGAUCAACAGAGGAUUGAGCAUCA"}}, "note": "The other results are listed elsewhere or left out."}
{"target": "T1, UNK ZnF1-3 (human, UniProt Q9C0B0 31-174)", "T1 sequence": "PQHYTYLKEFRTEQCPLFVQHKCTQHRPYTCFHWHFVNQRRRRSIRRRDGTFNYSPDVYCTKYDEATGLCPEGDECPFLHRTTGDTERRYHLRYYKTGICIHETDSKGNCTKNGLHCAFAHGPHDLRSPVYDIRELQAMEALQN", "test": "nsRBNS (natural sequence RNA bind-n-seq); RBNS binding buffer (assumed for nsRBNS): 25 mM Tris pH 7.5, 150 mM KCl, 3 mM MgCl2, 0.01% Triton X-100, 500 ug/ml BSA, 20 U/ml SUPERase-In, 4 C; UNK is unkempt and MSI1 is Musashi-1; names of the RNAs are library labels; protein concentration not given here; high values mean tight binding", "units": {"binding signal": "enrichment R"}}
{"binder": "B1", "binding signal": 1.47}
{"binder": "B2", "binding signal": 0.821}
{"binder": "B3", "binding signal": 1.43}
{"binder": "B4", "binding signal": 0.799}
{"binder": "B5", "binding signal": 0.866}
{"binder": "B6", "binding signal": 0.572}
{"binder": "B7", "binding signal": 1.15}
{"binder": "B8", "binding signal": 2}
{"binder": "B9", "binding signal": 1.37}
{"binder": "B10", "binding signal": 0.635}
{"binder": "B11", "binding signal": 0.888}
{"binder": "B12", "binding signal": 0.774}
{"binder": "B13", "binding signal": 1.39}
{"binder": "B14", "binding signal": 0.522}
